Measurements reported in PubChem BioAssay AID1508624 (National Center for Advancing Translational Sciences (NCATS), 2021).
Screen size: about 48,000 compounds; about 120 (0.25%) were called active. Not shown: some 4% with an inconclusive outcome. Calls follow the shape of the dose curve; as a rule, active = well fitted activation curve with a large enough effect; inconclusive = small, poorly fitted or top-dose-only effect, or another doubt; inactive = no such curve, though single readings can be large or run the other way. The list shows a part of the results.

Assay: Primary qHTS for Identification of Small Molecule Activators of Huntingtin-Antisense Promoter Activity; also: nearly all actives have a fitted effect of over 55% in size
Settings: HEK293 HTT-AS promoter firefly luciferase reporter, 24 h; series mostly up to 57.5 µM; activity change, positive = activation: at the top concentration
In short: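 HEK293 Fluc reporter, 2,500 cells/well, 24 h pre-culture; cpds up to 57.5 uM final, 24 h 37 degrees C; Dual-Glo, 10 min RT; normalized vehicle = 0%, zero RLU = -100%.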

SMILES | activity change, positive = activation
CCOc1ccc(NC(=O)Cn2cc(C(=O)c3ccc(OCC)cc3)c(=O)c3cc4c(cc32)OCCO4)cc1 | inactive: -3.59%
Cc1ccc(CCNC(=O)c2cc3cc4cc(C)ccc4nc3s2)cc1 | inactive: 23.7%
COc1ccc(NC(=O)N(C(C)C)C2CCN(C(C)=O)CC2)c(OC)c1 | inactive: -4.84%
COc1ccccc1Cn1c(CNS(=O)(=O)c2ccc(CC(C)C)cc2)nc2cccnc21 | inactive: -29%
COc1cccc(N2C(=O)C(CC(=O)Nc3ccc(F)cc3)N(CCC3=CCCCC3)C2=O)c1 (stereo unspecified) | inactive: -37.8%
COc1cccc(NC(=O)CN2C(=O)COc3ccc(S(=O)(=O)N4CCCCCC4)cc32)c1 | inactive: -29.4%
O=C1C2=C(Nc3ccccc3SC2c2ccc(Cl)c(Cl)c2)c2ccccc21 (stereo unspecified) | inactive: -63.2%
CCc1ccc(NC(=O)CC2C(=O)N(c3ccc(C)cc3)C(=O)N2CCc2ccncc2)cc1 (stereo unspecified) | inactive: -18.1%
Nc1c(C(=O)NCc2ccc3c(c2)OCO3)nnn1CC(=O)Nc1ccc(Br)cc1 | inactive: -12.2%
Cc1cccc(C)c1OCC(=O)N1CCC(c2nc3ccccc3o2)CC1 | inactive: -19.3%
COc1ccc(NC(=O)CN(C)S(=O)(=O)c2ccc(C(=O)N3CCOCC3)s2)cc1 | inactive: -15.6%
Cc1cc(SCC(=O)Nc2ccc(Cl)cc2)nc2ccccc12 | inactive: 14.4%
Cc1cccc(NC(=O)CSc2cn(CC(=O)N3CCCC3)c3ccccc23)c1C | inactive: -23.4%
CC(=O)N1CCCc2cc(S(=O)(=O)N3CCCC(C(=O)NCc4ccccc4)C3)ccc21 (stereo unspecified) | inactive: -28.2%
CCc1ccc(-c2cc(C)no2)cc1S(=O)(=O)Nc1ccc(Cl)cn1 | inactive: -25.6%
COC(=O)c1ccc(NC(=O)N2CCC(CN3CCc4ccccc4C3)CC2)cc1 | inactive: -20.5%
CCOc1ccc(C(=O)Nc2ccc(C(=O)OCc3cc(=O)n4nc(CC)sc4n3)cc2)cc1 | inactive: -6.59%
COc1ccc(NC(=O)CSc2ccc(-c3cccs3)nn2)cc1 | inactive: -0.977%
COc1ccc(/C=C/C(=O)N2CCC(c3nc4ccccc4o3)CC2)cc1 | inactive: -9.15%
CCOc1ccc(N(CC)S(=O)(=O)N2CCCC(C(=O)Nc3ccc(NC(C)=O)cc3)C2)cc1 (stereo unspecified) | inactive: -14.9%
CCS(=O)(=O)c1nc(S(=O)(=O)c2ccc(C)cc2)c(NCc2ccc(Cl)cc2)s1 | inactive: -27.3%
CCOC(=O)c1ccc(NS(=O)(=O)c2cn(C)c(C)n2)cc1 | inactive: -12%
Cc1ccc(S(=O)(=O)N2CCCc3cc(NC(=O)c4ccc(F)c(F)c4)ccc32)cc1 | inactive: -24.6%

SMILES | activity change, positive = activation
COc1cccc(C(=O)Nc2cc(-c3ccccc3)nn2-c2ccccc2)c1 | inactive: -1.04%
CCOc1ccc(-c2c(C)nn3c(-c4ccccc4)c(C(=O)NCCOC)cnc23)cc1OCC | inactive: -16%
CC(=O)Oc1ccc(C(c2ccc(OC(C)=O)cc2)c2ccccn2)cc1 | inactive: -40.3%
CCN(C(=O)Cn1c(SCC(=O)NCc2ccccc2)nc2ccccc21)c1cccc(C)c1 | inactive: -21.6%
O=C(NCc1ccccc1Cl)c1cnc(N2CCCCC2)c2ccccc12 | inactive: -10.4%
COc1ccc(-c2cc3ccc(O)c(CN4CCN(CCO)CC4)c3oc2=O)cc1OC | inactive: -13.9%
Cc1cccn2c(Nc3ccc4c(c3)OCCO4)c(-c3ccc(Br)o3)nc12 | inactive: 18.3%
O=C(Nc1cccc(Cl)c1Cl)c1cc2nc(-c3ccc4c(c3)OCO4)cc(C(F)(F)F)n2n1 | inactive: -13.3% [at 11.5 µM, percent change from vehicle, -100% = no light]
COc1ccc(OC)c(CNC(=O)c2cc(-c3ccc(Cl)s3)nc3ccccc23)c1 | inactive: -15.7%
COc1cc(-c2nc3n(n2)C(c2ccc(F)cc2)C(C(N)=O)=C(C)N3)cc(OC)c1OC (stereo unspecified) | inactive: -2.21%
Cc1ccc(-n2nc(C(=O)NCCc3cccc(C)c3)c3c4ccccc4n(C)c3c2=O)cc1 | inactive: 9.4%
COc1ccccc1NC(=O)c1oc2ccccc2c1NC(=O)c1ccc(S(=O)(=O)N(C)C)cc1 | inactive: 26.9%
Cc1ccc(CNC(=O)c2cc(C3CC3)nc3c2c(C)nn3-c2cccc(Cl)c2C)cc1 | inactive: -3.93%
Cc1ccc(NC(=O)c2nc(S(=O)(=O)Cc3cccc(C)c3)ncc2Cl)cc1 | inactive: -52.1%
CCCN(CCC)C(=O)c1c[nH]c2ccc(S(=O)(=O)Nc3cc(C)cc(C)c3)cc2c1=O | inactive: -21.1%
COc1cc(OC)c(NC(=O)c2cc3c(s2)-c2ccc(Cl)cc2SC3)cc1Cl | inactive: 26.4%
Cc1cccc(N2CCN(C(=O)C3CCN(Cc4nc(-c5ccc(Cl)cc5)oc4C)CC3)CC2)c1C | inactive: -9.24%
Cc1cc(NC(=O)C2CCC(CNS(=O)(=O)c3ccc(Br)s3)CC2)ccc1Br (stereo unspecified) | inactive: -17.1%
N=c1nc(N2CCCCC2)cc(N)n1O | inactive
CCc1nn2c(-c3ccco3)ccnc2c1-c1ccccc1 | inactive: 16%
CCOC(=O)c1cc(S(=O)(=O)Nc2ccc(OC(F)(F)F)cc2)[nH]n1 | inactive: -20.9%
CCC1CN(C(=O)N2CCC(C(=O)NCc3cc(OC)ccc3OC)CC2)c2ccccc2O1 (stereo unspecified) | inactive: -28.5%
Cn1c(C(=O)NCc2ccc(F)cc2)cc2cc(S(=O)(=O)N3CCCCC3)ccc21 | inactive: -35%

SMILES | activity change, positive = activation
COc1ccc(NC(=O)CSc2nc(-c3ccc(OC)cc3)cc(=O)[nH]2)cc1 | inactive: 11.9%
CC(=O)OCC(=O)Nc1cc(C#N)cc(NC(=O)COC(C)=O)c1Cl | inactive: -4.09%
COc1ccc(NC(=O)Cn2c(=O)n(Cc3nc(C)no3)c(=O)c3cc4c(cc32)OCO4)cc1 | inactive: -12.3%
COc1ccc(NC(=O)c2cc3c(=O)n(Cc4cccs4)ccc3nc2C)c(OC)c1 | inactive: -6.19%
Cc1cc(C)cc(NS(=O)(=O)c2ccc(-c3cc(C)no3)s2)c1 | inactive: -40.8%
Cc1cc(C)c(NC(=O)C2CCN(C(=O)N3CC(C)Oc4ccc(Cl)cc43)CC2)c(C)c1 (stereo unspecified) | inactive: -27.3%
Cc1ccc(-c2nc3cc(Cl)ccc3o2)cc1NC(=O)c1cc2ccccc2o1 | inactive: 20%
Cc1c(C(=O)N(C)C)sc2c1c(=O)n(-c1ccccc1C(F)(F)F)c(=O)n2Cc1ccccc1C#N | inactive: -14.6%
CC(C)Cc1nn2c(=O)cc(COC(=O)c3cccc(NC(=O)c4cccs4)c3)nc2s1 | inactive: 1.81%
COc1ccc(-c2nsc(NC(=O)COc3ccccc3OC)n2)cc1 | inactive: -0.766%
Cc1ccccc1Cn1c(=O)n(CC2CCC(C(=O)N3CCC(C)CC3)CC2)c(=O)c2sccc21 (stereo unspecified) | inactive: -44.1%
COc1ccccc1CNC(=O)CCCn1c(=O)c2ccccc2n(CC(=O)Nc2ccc(C)cc2Cl)c1=O | inactive: -37.6%
CC(C)c1cnn2c(NCc3ccccc3)cc(NCCCCCCN)nc12 | inactive: -22.9%
Cc1c(Cl)cccc1NC(=O)c1cc(-c2cccs2)on1 | inactive: 10.5%
CCOC(=O)c1c(C)[nH]c(C)c1S(=O)(=O)N(C)CC(=O)Nc1cccc(Cl)c1C | inactive: -6.44%
Cc1c(C(=O)N2CCC(C)CC2)c(S(=O)(=O)Nc2cccc(C#N)c2)c(C)n1C | inactive: -7.25%
Cc1ccc(NCc2cccn2-c2nnc(N3CCC(C(=O)NCc4ccccc4C)CC3)s2)cc1 | inactive: -25%
COc1ccc(CN2CCCN(CC(=O)Nc3ccc(Br)cc3F)S2(=O)=O)cc1 | inactive: -5.05%
Cc1ccc(-n2ncc(C(=O)NCc3ccc4c(c3)OCO4)c2C2CCN(C(=O)OC(C)(C)C)CC2)cc1C | inactive: -40.5%
CCOc1ccc(NC(=O)CC2Nc3cccc4cccc(c34)NC2=O)cc1 (stereo unspecified) | inactive: -21.3%
COc1ccc(C(=O)N2CCCCC2CCN2CCOCC2)cc1 (stereo unspecified) | inactive: -4.96%
CC1=C(c2ccc(C)c(C)c2)S(=O)(=O)N=C1N1CCN(c2cccc(C)c2)C(C)C1 (stereo unspecified) | inactive: -18.8%
CCOC(=O)c1ccc(NC(=O)C2=C(C)C(=O)OC23CCCCCC3)cc1 | inactive: -25.6%

SMILES | activity change, positive = activation
CC(C)Sc1ncc(Cl)c(C(=O)Nc2nc3ccc(S(C)(=O)=O)cc3s2)n1 | inactive: -7.45%
Cc1cc(-c2ccc(S(=O)(=O)Nc3cccc(C(F)(F)F)c3)s2)on1 | inactive: -33.9%
O=C(c1ccccc1Cl)N1CCCC(c2nc3c(nnn3Cc3ccc(F)cc3F)c(=O)[nH]2)C1 (stereo unspecified) | inactive: -23.5%
CN(C(=O)CSc1nc2ccc(NC(=O)COc3ccc(F)cc3)cc2s1)c1ccccc1 | inactive: -41.5%
Cc1cccc(NC(=O)CSc2ncc3c(n2)-c2cc(Cl)ccc2N(C)S3(=O)=O)c1C | inactive: -9.15%
CC(C)c1ccc(Nc2cc(C(=O)NCCCN(C)Cc3ccccc3)c3ccccc3n2)cc1 | inactive: -17.7%
CC(=O)N1CCN(C(=O)C(=O)Nc2c3c(nn2-c2ccc(Cl)cc2)CSC3)CC1 | inactive: -9.96%
COC(=O)c1ccc(C2c3c(-c4ccc(Br)cc4)n[nH]c3C(=O)N2c2ccc(Cl)cc2)cc1 (stereo unspecified) | inactive: -50.1%
CCOc1ccc2c(c1)c(=O)c(S(=O)(=O)c1ccc(CC)cc1)cn2CC | inactive: -18.7%
CCc1ccc(OCC(=O)Nc2cc3oc4ccccc4c3cc2OC)c(Br)c1 | inactive: 3.6% [at 11.5 µM, percent change from vehicle, -100% = no light]
CCOc1ccccc1-c1noc(CSc2nnc(-c3ccncc3)n2-c2ccc(F)cc2)n1 | inactive: -32.4%
O=C(COc1ccccc1)Nc1c(C(=O)N2CCN(c3ccc(F)cc3)CC2)oc2ccccc12 | inactive: -7.21%
Cn1c(=O)n(Cc2ccccc2Cl)c(=O)c2c1nc1n2CCN1c1ccccc1 | inactive: -17.6%
COc1cccc(CNC(=O)CSc2cc(C)[nH]c(=O)n2)c1 | inactive: -8.88%
Cc1ccc(C(=O)COC(=O)CCCC(=O)Nc2cc(C(F)(F)F)ccc2Cl)cc1C | inactive: -4.95%
Cc1c(Cl)cccc1NC(=O)CSc1nc(=O)n(Cc2ccncc2)c2c1CCC2 | inactive: -7.39%
CCc1nn(CCCN2CCN(c3cccc(Cl)c3)CC2)c(=O)n1CCOc1ccccc1 | inactive: -35.8%
COc1ccc(C(=O)NCc2ccc3c(c2)CCN3C(C)=O)cc1OC | inactive: -15%
Cc1oc(-c2ccc(C(=O)NCCCOC(C)C)cc2)nc1CS(=O)(=O)c1ccccc1 | inactive: -27.5%
CCn1ccc2cc(S(=O)(=O)N3CCCN(C(=O)Nc4ccc(C)cc4Cl)CC3)ccc21 | inactive: -16%
Cc1cc(Nc2ccccc2F)n2nc(Cc3ccc(Cl)cc3)nc2n1 | inactive: -18.2%
COc1cc2c(cc1OC)n(CC(=O)Nc1ccc(C)cc1C)c(=O)n1nc(-c3ccccc3)nc21 | inactive: -10.5%
